Tested on: MLKL phosphorylation, HT29-L23 human colorectal adenocarcinoma cells
Assay: cells
Conditions: read-out: pMLKL HCS Cell Assay (IC50, uM)

Compound | IC50
COc1ncc(-c2cc(C(F)(F)F)c3c(N)ncnn23)cc1NC(=O)c1cn(Cc2ccccc2)cn1 [Example 1772, N-(5-(4-amino-5-(trifluoromethyl)pyrrolo[2,1-f][1,2,4]triazin-7-yl)-2-methoxypyridin-3-yl)-1-benzyl-1H-imidazole-4-carboxamide] | 0.026 µM
Cc1ncc(-c2cc(C(F)(F)F)c3c(N)ncnn23)cc1C(=O)Nc1cn(C(C)c2ccc(F)cc2)cn1 (centres unmarked) [Example 1773, 5-(4-amino-5-(trifluoromethyl)pyrrolo[2,1-f][1,2,4]triazin-7-yl)-N-(1-(1-(4-fluorophenyl)ethyl)-1H-imidazol-4-yl)-2-methylnicotinamide] | 0.00085 µM
COc1ncc(-c2cc(C(F)(F)F)c3c(N)ncnn23)cc1C(=O)Nc1cn(C(C)c2ccc(F)cc2)cn1 (centres unmarked) [Example 1774, 5-(4-amino-5-(trifluoromethyl)pyrrolo[2,1-f][1,2,4]triazin-7-yl)-N-(1-(1-(4-fluorophenyl)ethyl)-1H-imidazol-4-yl)-2-methoxynicotinamide] | 0.0027 µM
Cc1ncc(-c2cc(C(F)(F)F)c3c(N)ncnn23)cc1C(=O)Nc1cnn(Cc2cc(OC(F)(F)F)ccc2F)c1 [Example 1775, 5-(4-amino-5-(trifluoromethyl)pyrrolo[2,1-f][1,2,4]triazin-7-yl)-N-(1-(2-fluoro-5-(trifluoromethoxy)benzyl)-1H-pyrazol-4-yl)-2-methylnicotinamide] | 0.0099 µM
COc1ncc(-c2cc(C(F)(F)F)c3c(N)ncnn23)cc1C(=O)Nc1cnn(C(C)c2ccc(F)cc2)c1 (centres unmarked) [Example 1776, 5-(4-amino-5-(trifluoromethyl)pyrrolo[2,1-f][1,2,4]triazin-7-yl)-N-(1-(1-(4-fluorophenyl)ethyl)-1H-pyrazol-4-yl)-2-methoxynicotinamide] | 0.00074 µM
Cc1ncc(-c2cc(C(F)(F)F)c3c(N)ncnn23)cc1C(=O)Nc1cnn(C(C)c2ccc(F)cc2)c1 (centres unmarked) [Example 1777, 5-(4-amino-5-(trifluoromethyl)pyrrolo[2,1-f][1,2,4]triazin-7-yl)-N-(1-(1-(4-fluorophenyl)ethyl)-1H-pyrazol-4-yl)-2-methylnicotinamide] | 0.00055 µM
Cc1ncc(-c2cc(C(F)(F)F)c3c(N)ncnn23)cc1C(=O)Nc1cn(Cc2cc(OC(F)(F)F)ccc2F)cn1 [Example 1778, 5-(4-amino-5-(trifluoromethyl)pyrrolo[2,1-f][1,2,4]triazin-7-yl)-N-(1-(2-fluoro-5-(trifluoromethoxy)benzyl)-1H-imidazol-4-yl)-2-methylnicotinamide] | 0.012 µM
COc1ncc(-c2cc(C(F)(F)F)c3c(N)ncnn23)cc1C(=O)Nc1cn(CC(C)(O)C(F)(F)F)cn1 (centres unmarked) [Example 1779, 5-(4-amino-5-(trifluoromethyl)pyrrolo[2,1-f][1,2,4]triazin-7-yl)-2-methoxy-N-(1-(3,3,3-trifluoro-2-hydroxy-2-methylpropyl)-1H-imidazol-4-yl)nicotinamide] | 0.485 µM
Cc1ncc(-c2cc(C(F)(F)F)c3c(N)ncnn23)cc1C(=O)Nc1cn(CC(C)(O)C(F)(F)F)cn1 (centres unmarked) [Example 1780, 5-(4-amino-5-(trifluoromethyl)pyrrolo[2,1-f][1,2,4]triazin-7-yl)-2-methyl-N-(1-(3,3,3-trifluoro-2-hydroxy-2-methylpropyl)-1H-imidazol-4-yl)nicotinamide] | 0.039 µM
Cc1ncc(-c2cc(C(F)(F)F)c3c(N)ncnn23)cc1C(=O)Nc1cn(CCC(C)(O)C(F)(F)F)cn1 (centres unmarked) [Example 1781, 5-(4-amino-5-(trifluoromethyl)pyrrolo[2,1-f][1,2,4]triazin-7-yl)-2-methyl-N-(1-(4,4,4-trifluoro-3-hydroxy-3-methylbutyl)-1H-imidazol-4-yl)nicotinamide] | 0.022 µM
COc1ncc(-c2cc(C(F)(F)F)c3c(N)ncnn23)cc1C(=O)NCCC(O)(C(F)(F)F)C(F)(F)F [Example 1782, 5-(4-amino-5-(trifluoromethyl)pyrrolo[2,1-f][1,2,4]triazin-7-yl)-2-methoxy-N-(4,4,4-trifluoro-3-hydroxy-3-(trifluoromethyl)butyl)nicotinamide] | 0.239 µM
Cc1ncc(-c2cc(C(F)(F)F)c3c(N)ncnn23)cc1C(=O)NCCC(O)(C(F)(F)F)C(F)(F)F [Example 1783, 5-(4-amino-5-(trifluoromethyl)pyrrolo[2,1-f][1,2,4]triazin-7-yl)-2-methyl-N-(4,4,4-trifluoro-3-hydroxy-3-(trifluoromethyl)butyl)nicotinamide] | 0.169 µM
COc1ncc(-c2cc(C(F)(F)F)c3c(N)ncnn23)cc1C(=O)Nc1cn(CCc2ccccc2)cn1 [Example 1784, 5-(4-amino-5-(trifluoromethyl)pyrrolo[2,1-f][1,2,4]triazin-7-yl)-2-methoxy-N-(1-phenethyl-1H-imidazol-4-yl)nicotinamide] | 0.049 µM
Cc1ncc(-c2cc(C(F)(F)F)c3c(N)ncnn23)cc1C(=O)Nc1cn(CCc2ccccc2)cn1 [Example 1785, 5-(4-amino-5-(trifluoromethyl)pyrrolo[2,1-f][1,2,4]triazin-7-yl)-2-methyl-N-(1-phenethyl-1H-imidazol-4-yl)nicotinamide] | 0.0023 µM
COc1ncc(-c2cc(C(F)(F)F)c3c(N)ncnn23)cc1C(=O)Nc1cnn(CCc2ccccc2)c1 [Example 1786, 5-(4-amino-5-(trifluoromethyl)pyrrolo[2,1-f][1,2,4]triazin-7-yl)-2-methoxy-N-(1-phenethyl-1H-pyrazol-4-yl)nicotinamide] | 0.0096 µM
Cc1ncc(-c2cc(C(F)(F)F)c3c(N)ncnn23)cc1C(=O)Nc1cnn(CCc2ccccc2)c1 [Example 1787, 5-(4-amino-5-(trifluoromethyl)pyrrolo[2,1-f][1,2,4]triazin-7-yl)-2-methyl-N-(1-phenethyl-1H-pyrazol-4-yl)nicotinamide] | 0.0029 µM
COc1ncc(-c2cc(C(F)(F)F)c3c(N)ncnn23)cc1C(=O)Nc1cnn(CC(C)(O)C(F)(F)F)c1 (centres unmarked) [Example 1788, 5-(4-amino-5-(trifluoromethyl)pyrrolo[2,1-f][1,2,4]triazin-7-yl)-2-methoxy-N-(1-(3,3,3-trifluoro-2-hydroxy-2-methylpropyl)-1H-pyrazol-4-yl)nicotinamide] | 0.131 µM
Cc1ncc(-c2cc(C(F)(F)F)c3c(N)ncnn23)cc1C(=O)Nc1cnn(CC(C)(O)C(F)(F)F)c1 (centres unmarked) [Example 1789, 5-(4-amino-5-(trifluoromethyl)pyrrolo[2,1-f][1,2,4]triazin-7-yl)-2-methyl-N-(1-(3,3,3-trifluoro-2-hydroxy-2-methylpropyl)-1H-pyrazol-4-yl)nicotinamide] | 0.067 µM
COc1ncc(-c2cc(C(F)(F)F)c3c(N)ncnn23)cc1C(=O)Nc1cnn(CCC(C)(O)C(F)(F)F)c1 (centres unmarked) [Example 1790, 5-(4-amino-5-(trifluoromethyl)pyrrolo[2,1-f][1,2,4]triazin-7-yl)-2-methoxy-N-(1-(4,4,4-trifluoro-3-hydroxy-3-methylbutyl)-1H-pyrazol-4-yl)nicotinamide] | 0.095 µM
Cc1ncc(-c2cc(C(F)(F)F)c3c(N)ncnn23)cc1C(=O)Nc1cnn(CCC(C)(O)C(F)(F)F)c1 (centres unmarked) [Example 1791, 5-(4-amino-5-(trifluoromethyl)pyrrolo[2,1-f][1,2,4]triazin-7-yl)-2-methyl-N-(1-(4,4,4-trifluoro-3-hydroxy-3-methylbutyl)-1H-pyrazol-4-yl)nicotinamide] | 0.031 µM
